{"source": "PubChem BioAssay AID504333", "about": "(National Center for Advancing Translational Sciences (NCATS), 2011)", "note": "Screen size: about 360,000 compounds; about 16,000 (4.4%) were called active. Inconclusive means that the source gave no clear call. Such entries were picked first, then a sample of the others. The call rests on the fitted dose curve; in most records, active means well fitted inhibition curve with a large enough effect; inconclusive means small, poorly fitted or top-dose-only effect; inactive means no such curve, though single readings can be large or run the other way. Where the call is inconclusive, the potency comes from a doubtful curve fit. Potency means the concentration at half of the fitted maximal effect; tags describe the fitted curve by direction and shape.", "data": [{"target": "Bromodomain adjacent to zinc finger domain protein 2B (Homo sapiens) (UniProt Q9UIF8)", "sequence (Q9UIF8 whole entry, looked up, the tested form may be a part)": "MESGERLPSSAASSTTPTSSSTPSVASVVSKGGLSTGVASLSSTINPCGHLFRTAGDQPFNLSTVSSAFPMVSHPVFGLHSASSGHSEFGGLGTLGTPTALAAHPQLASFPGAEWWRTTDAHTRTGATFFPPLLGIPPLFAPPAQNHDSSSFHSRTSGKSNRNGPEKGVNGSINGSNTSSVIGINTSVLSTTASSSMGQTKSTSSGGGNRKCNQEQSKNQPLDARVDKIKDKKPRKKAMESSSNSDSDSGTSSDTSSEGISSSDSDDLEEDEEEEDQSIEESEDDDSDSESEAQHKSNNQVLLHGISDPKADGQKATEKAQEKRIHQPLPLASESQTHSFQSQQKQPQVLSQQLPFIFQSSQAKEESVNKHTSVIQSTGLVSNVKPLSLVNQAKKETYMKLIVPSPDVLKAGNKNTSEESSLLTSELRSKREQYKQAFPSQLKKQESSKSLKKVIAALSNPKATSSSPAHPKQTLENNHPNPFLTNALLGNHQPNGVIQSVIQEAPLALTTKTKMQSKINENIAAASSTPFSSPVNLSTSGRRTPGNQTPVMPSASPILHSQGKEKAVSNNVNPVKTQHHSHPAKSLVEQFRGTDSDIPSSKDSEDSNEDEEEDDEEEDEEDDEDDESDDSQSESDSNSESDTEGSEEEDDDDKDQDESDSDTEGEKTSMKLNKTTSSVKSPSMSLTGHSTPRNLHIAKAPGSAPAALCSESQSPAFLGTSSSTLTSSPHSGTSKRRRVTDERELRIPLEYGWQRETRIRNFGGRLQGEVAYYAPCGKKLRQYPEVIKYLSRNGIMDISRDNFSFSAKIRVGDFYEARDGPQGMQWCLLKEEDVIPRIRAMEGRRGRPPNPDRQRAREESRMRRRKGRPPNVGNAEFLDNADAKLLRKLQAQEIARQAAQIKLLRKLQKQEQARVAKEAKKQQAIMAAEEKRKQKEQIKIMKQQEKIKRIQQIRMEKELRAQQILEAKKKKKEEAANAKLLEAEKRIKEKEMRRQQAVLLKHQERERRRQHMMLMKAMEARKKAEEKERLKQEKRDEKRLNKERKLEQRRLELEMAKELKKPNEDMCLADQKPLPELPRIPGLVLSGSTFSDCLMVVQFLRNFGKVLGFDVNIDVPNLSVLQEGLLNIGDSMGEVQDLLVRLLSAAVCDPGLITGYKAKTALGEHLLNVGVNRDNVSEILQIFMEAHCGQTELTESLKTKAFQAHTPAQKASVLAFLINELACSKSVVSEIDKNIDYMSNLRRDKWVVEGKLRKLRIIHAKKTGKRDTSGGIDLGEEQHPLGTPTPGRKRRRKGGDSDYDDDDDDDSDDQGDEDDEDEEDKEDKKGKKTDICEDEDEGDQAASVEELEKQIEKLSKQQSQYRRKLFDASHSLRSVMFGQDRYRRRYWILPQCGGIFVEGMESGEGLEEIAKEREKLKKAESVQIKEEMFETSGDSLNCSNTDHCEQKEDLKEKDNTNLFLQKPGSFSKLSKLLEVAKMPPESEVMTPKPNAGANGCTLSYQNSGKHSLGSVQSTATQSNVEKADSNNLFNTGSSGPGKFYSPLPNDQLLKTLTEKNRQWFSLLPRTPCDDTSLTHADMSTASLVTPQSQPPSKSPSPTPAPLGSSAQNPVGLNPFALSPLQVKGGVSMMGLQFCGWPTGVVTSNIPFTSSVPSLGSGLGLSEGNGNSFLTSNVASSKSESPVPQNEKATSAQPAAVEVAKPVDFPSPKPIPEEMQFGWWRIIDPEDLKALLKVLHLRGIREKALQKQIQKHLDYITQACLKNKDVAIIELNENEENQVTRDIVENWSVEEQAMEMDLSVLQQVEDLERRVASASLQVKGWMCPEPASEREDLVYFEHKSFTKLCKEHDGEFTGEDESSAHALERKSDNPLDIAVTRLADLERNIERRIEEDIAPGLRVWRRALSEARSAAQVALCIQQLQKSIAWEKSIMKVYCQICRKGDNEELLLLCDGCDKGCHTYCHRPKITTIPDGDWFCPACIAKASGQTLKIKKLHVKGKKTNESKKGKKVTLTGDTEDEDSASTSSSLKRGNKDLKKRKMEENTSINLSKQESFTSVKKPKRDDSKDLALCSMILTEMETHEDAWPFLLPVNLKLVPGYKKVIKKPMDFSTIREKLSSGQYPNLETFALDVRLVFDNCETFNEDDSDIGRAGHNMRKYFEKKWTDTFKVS", "test": "qHTS Assay for Inhibitors of BAZ2B; further: nearly all actives have a fitted effect of over 60% in size", "details": "AlphaScreen BAZ2B-H3K14Ac peptide displacement; series mostly up to 114 µM", "description": "BAZ2B (bromodomain adjacent to zinc finger domain, 2B) belongs to a family of ubiquitously expressed bromodomain containing proteins, which biological function has not yet been elucidated. […] The interaction of BAZ2B with ISWI mediated by the BAZ1 motif has recently been described. […] The protocol is based on the AlphaScreen (PerkinElmer) displacement assay developed by NCGC [5], but uses the peptide ligand Biot-H3K14Ac, a high affinity binding partner for BAZ2B, in an AlphaScreen format. Although AlphaScreen has significant advantages with its utility in a variety of epigenetic target assays, the primary screening data provided in this deposition should be used with caution due to the prevalence of screening artifacts. The top compound concentration tested was 110uM in this assay, which increases number of actives and potential artifacts. An AlphaScreen counterscreen is highly recommended to be run against any putative actives to eliminate non-specific artifacts. Alternatively, one can use other AlphaScreen assays in PubChem to filter out promiscuous hits. Eberharter, A. et al. ACF1 improves the effectiveness of nucleosome mobilization by ISWI through PHD-histone contacts. The EMBO journal 23, 4029-4039. 2004. PMID: 15457208 [2] Jones, M.H. et al. A novel family of bromodomain genes. Genomics 63, 40-45. 2000. PMID: 10662543 [3] Yasgar, et al. Compound Management for Quantitative High-Throughput Screening. JALA. 2008 Apr;13(2):79-89. PMID: 18496600 [4] Inglese, et al. Quantitative high-throughput screening: a titration-based approach that efficiently identifies biological activities in large chemical libraries. Proc Natl Acad Sci. 1;103(31):11473-8. 2006. PMID: 16864780 [5] Quinn et al. A chemiluminescence-based method for identification of histone lysine methyltransferase inhibitors. Mol Biosyst 6(5): 782-8. 2010. PMID: 20567762 [6] Baell,Holloway. New substructure filters for removal of pan assay interference compounds (PAINS) from screening libraries and for their exclusion in bioassays. J Med Chem. 53(7):2719-40. 2010. PMID: 20131845 NIH Molecular Libraries Probe Production Network [MLPCN] NIH Chemical Genomics Center [NCGC] Structural Genomics Consortium (SGC) NIH Grant: 5U54 MH084681-02\nTo each well of a 1,536w plate, 2ul of BAZ2B protein (final 50nM) and 1ul biotinylated histone peptide acetylated at Lys14 [b-H3(5-23)K14Ac] (final 50nM) were added in 1x PBS buffer, pH 7.4, containing 0.01% Tween-20, using a nanoliter dispenser. Formation of a protein-peptide complex proceeded at room temperature for 30 min. A Kalypsys pin-tool was employed to transfer 23 nL of library compound solution in DMSO to each well. Following a 30 min incubation of the protein-peptide complex with compounds at room temperature, a mixture of 40 ug/mL each streptavidin-coated donor and nickel chelate acceptor AlphaScreen beads (final 10 ug/mL) were added in a 1ul dispense for a final volume of 4ul. A brief centrifugation followed (1000rpm, 1 min) and were then incubated protected from the light for 20 min at room temperature. Plates were read on an EnVision multilabel plate reader using the 1,536 plate HTS AlphaScreen aperture (excitation time 80 ms, measurement time 240 ms).", "values": [{"smiles": "COc1cc(CNCCCN2CCOCC2)cc(Br)c1OCC(=O)N1CCCCC1", "Potency": "inconclusive: 89.1 µM [inhibitor, single point]"}, {"smiles": "COc1ccc(-c2ccc3c(c2)S(=O)(=O)c2cccc(C(=O)NC4CC4)c2C3=O)cc1OC", "Potency": "inconclusive: 89.1 µM [inhibitor, single point]"}, {"smiles": "Cc1cc(OCC(=O)NCCO)ccc1Cl", "Potency": "inactive"}, {"smiles": "COc1ccc(CNC(=O)C2CCN(c3nc4ccc(C)cc4[nH]3)CC2)cc1", "Potency": "inactive"}, {"smiles": "C/C(=N\\Nc1ccc([N+](=O)[O-])cc1)c1cccc(N)c1", "Potency": "inconclusive: 79.4 µM [inhibitor, single point]"}, {"smiles": "CCCC(=O)Nc1nnc(S(=O)(=O)N(C)Cc2ccco2)s1", "Potency": "inconclusive: 79.4 µM [inhibitor, single point]"}, {"smiles": "O=C(CCn1ccnc1)Nc1nc2ccccc2[nH]1", "Potency": "inconclusive: 50.1 µM [inhibitor, partial curve]"}, {"smiles": "CCOC(=O)c1c(C)[nH]c(C)c1S(=O)(=O)N1CCC(C(=O)NCc2ccc(C)cc2)CC1", "Potency": "inactive"}, {"smiles": "COc1ccc(CCNC(=O)CCCCn2c(=O)c3ccccc3n(CC(=O)Nc3ccccc3C)c2=O)cc1OC", "Potency": "inactive"}, {"smiles": "COc1ccc(S(=O)(=O)c2cn(Cc3ccccc3)c3cc(N4CCCC4)c(F)cc3c2=O)cc1", "Potency": "inactive"}, {"smiles": "CN(C)C(=O)CSc1nc(-c2ccccc2)c(-c2ccccc2)o1", "Potency": "inconclusive: 39.8 µM [inhibitor, partial curve]"}, {"smiles": "O=C(Cc1cn2ccsc2n1)OCc1nc2ccccc2s1", "Potency": "inconclusive: 89.1 µM [inhibitor, single point]"}, {"smiles": "Cc1ccc(S(=O)(=O)N(C#N)c2nc(C)cc(C)n2)cc1", "Potency": "inconclusive: 89.1 µM [inhibitor, single point]"}, {"smiles": "COc1ccc(N2CCCn3c2nc2c3c(=O)n(Cc3ccc(F)cc3)c(=O)n2C)c(OC)c1", "Potency": "inconclusive: 89.1 µM [inhibitor, single point]"}, {"smiles": "CCn1c(Cc2cccn2C)nnc1SCC(=O)c1ccc(C)cc1", "Potency": "active: 50.1 µM"}, {"smiles": "O=C(Nc1ccc2oc(-c3cccnc3)nc2c1)c1ccc(Br)o1", "Potency": "inactive"}, {"smiles": "c1ccc(Cn2nnc3c(Nc4ccc5c(c4)OCO5)nc(C4CC4)nc32)cc1", "Potency": "inconclusive: 100 µM [inhibitor, single point]"}, {"smiles": "S=c1[nH]c2cc(-c3ccccc3)ccc2o1", "Potency": "inconclusive: 35.5 µM [inhibitor, partial curve]"}, {"smiles": "CC(C)Cn1nc(NS(=O)(=O)c2cccc3nonc23)c2cc3ccccc3nc21", "Potency": "inconclusive: 44.7 µM [inhibitor, partial curve]"}, {"smiles": "COc1ccc(C=C(c2nc3ccccc3s2)c2nc3ccccc3s2)cc1O", "Potency": "inconclusive: 28.2 µM [inhibitor, full curve]"}, {"smiles": "O=C(c1ccc(N2CCCS2(=O)=O)cc1)N1CCN(c2ccccc2)CC1", "Potency": "inactive"}, {"smiles": "C=CCn1c(=S)[nH]c2scc(-c3ccc(C)o3)c2c1=O", "Potency": "inactive"}, {"smiles": "COCCCN=C1NN=C(c2cc(C)n(-c3ccccc3F)c2C)CS1", "Potency": "active: 70.8 µM"}, {"smiles": "O=C(CSc1nc2ccccc2o1)N1CCN(C(=O)c2ccco2)CC1", "Potency": "inactive"}, {"smiles": "NC(=O)CC(NC(=O)c1ccc(Br)cc1)c1ccc(NC2CCCCCCC2)c([N+](=O)[O-])c1", "note": "(stereo unspecified)", "Potency": "inconclusive: 50.1 µM [inhibitor, partial curve]"}, {"smiles": "Cc1ccc(C(=O)N2CCN(c3ccc(NC(=O)c4cc(C)cc(C)c4)cc3)CC2)cc1", "Potency": "inactive"}, {"smiles": "Cc1cccc2sc(N(CCN(C)C)C(=O)C3CCN(S(=O)(=O)c4cccs4)CC3)nc12", "Potency": "active: 50.1 µM"}, {"smiles": "O=C(CN1CCN(Cc2ccccc2)CC1)Nc1ccc2c(c1)CCC2", "Potency": "inactive"}, {"smiles": "COc1ccc(C(=O)C2CCCN(C(=O)c3cccc(N(C)C)c3)C2)cc1OC", "note": "(stereo unspecified)", "Potency": "inconclusive: 79.4 µM [inhibitor, partial curve]"}, {"smiles": "Cc1ccn2c(=O)nc(SCC(=O)N3N=C(c4cccs4)CC3c3ccc(F)cc3)nc2c1", "note": "(stereo unspecified)", "Potency": "inactive"}, {"smiles": "O=C(O)C(Cc1ccccc1)Nc1ccc([N+](=O)[O-])cc1[N+](=O)[O-]", "note": "(stereo unspecified)", "Potency": "inconclusive: 70.8 µM [inhibitor, single point]"}, {"smiles": "COc1ccccc1N1CCN(/N=C/c2c(C)nn(-c3ccccc3)c2C)CC1", "Potency": "active: 28.2 µM"}, {"smiles": "O=C(/C=C\\c1ccco1)Nc1nc(-c2ccc3ccccc3c2)cs1", "Potency": "inconclusive: 50.1 µM [inhibitor, partial curve]"}, {"smiles": "COc1cc(Nc2c3ccccc3nc3ccccc23)cc(OC)c1OC", "Potency": "inconclusive: 44.7 µM [inhibitor, partial curve]"}, {"smiles": "COc1cc(NC(=S)NCCc2ccc(S(N)(=O)=O)cc2)c(OC)cc1Cl", "Potency": "inconclusive: 63.1 µM [inhibitor, partial curve, poor fit]"}, {"smiles": "CN1C(=O)/C(=C/c2ccccc2OCc2ccccc2)NC1=S", "Potency": "inconclusive: 28.2 µM [inhibitor, partial curve]"}, {"smiles": "CCC(=O)Nc1nnc(-c2ccccn2)o1", "Potency": "active: 28.2 µM"}, {"smiles": "CCCCOc1ccc(C2C(C(=O)c3cccs3)=C(O)C(=O)N2CCN2CCOCC2)cc1", "note": "(stereo unspecified)", "Potency": "inactive"}, {"smiles": "CN(C)S(=O)(=O)c1ccc2c(c1)N(CC(=O)N1CCCCC1)CCS2", "Potency": "inactive"}, {"smiles": "Cc1ccc(OCC(=O)Nc2cc(S(=O)(=O)N3CCCCC3)ccc2N2CCN(C)CC2)c(C)c1", "Potency": "inconclusive: 79.4 µM [inhibitor, single point]"}, {"smiles": "CCN(CC)CCNC(=O)c1ccccn1", "Potency": "inconclusive: 100 µM [inhibitor, single point]"}, {"smiles": "CCOC(=O)c1c(C)oc2c1c(CN1CCN(C(=O)OCC)CC1)c(O)c1ccccc12", "Potency": "inconclusive: 89.1 µM [inhibitor, single point]"}, {"smiles": "COc1cc(C2C3C(=O)N(Cc4ccccc4)C(=O)C3ON2c2ccccc2)cc(OC)c1O", "note": "(stereo unspecified)", "Potency": "inconclusive: 70.8 µM [inhibitor, single point]"}, {"smiles": "CC1(OC(=O)c2cccs2)C(=O)C=C2C=C3CCCN3C=C2C1=O", "note": "(stereo unspecified)", "Potency": "active: 44.7 µM"}, {"smiles": "O=C(C1CCN(c2nc3ccccc3[nH]2)CC1)N1CCN(c2ccccc2)CC1", "Potency": "inactive"}, {"smiles": "CC1(C)Cc2c(C#N)c(N3CCN(C(=O)c4ccco4)CC3)nc(-c3ccco3)c2CS1", "Potency": "active: 20 µM"}]}]}
